No constants are given. Whether binding was seen depends on the method and setting. Binding seen in cells or lysates may run through a third protein. Some binding calls cover weakened binding; strength is not graded here.
Legend:
[1] = biological target: Human P2Y1 receptor fused to Venus in the C-terminus intracellular region (human) (UniProt P47900); assay: FRET or BRET; BRET1, basal signal in HEK293T/17 cells expressing β-arrestin 2-RLuc alone or with receptor-Venus, no agonist; also with 0.2 U/mL apyrase; coelenterazine h 5 μM
[2] = biological target: Human P2Y12 receptor fused to Venus in the C-terminus intracellular region (human) (UniProt Q9H244); assay: as above
[3] = biological target: Human P2Y1 receptor fused to Venus in the C-terminus intracellular region (human) (UniProt P47900); assay: FRET or BRET; BRET1 saturation curves in HEK293T/17 cells: fixed amount of β-arrestin 2-RLuc and increasing amounts of receptor-Venus or Venus; Net BRET, nonlinear regression with a one-site binding model
[4] = biological target: Human P2Y12 receptor fused to Venus in the C-terminus intracellular region (human) (UniProt Q9H244); assay: as above
[5] = biological target: Human P2Y1 receptor fused to Venus in the C-terminus intracellular region (human) (UniProt P47900); assay: FRET or BRET; BRET1 in HEK293T/17 cells co-expressing β-arrestin 2-RLuc and receptor-Venus, after stimulation or not with ADP (10 μM), AngII (10 μM), MRS2179 (10 μM) or 2MeSADP (10 μM) for 5 or 15 min; kinetics read at 20-s intervals; also with decreasing amounts of P2Y1-R-Venus vector
[6] = biological target: Human P2Y12 receptor fused to Venus in the C-terminus intracellular region (human) (UniProt Q9H244); assay: as above
[7] = biological target: Rat angiotensin II type 1 receptor fused to Venus in the C-terminus intracellular region (rat) (UniProt P25095); assay: as above

By UniProt entry, the sequences of proteins in these tests, tags left out.
UniProt P47900: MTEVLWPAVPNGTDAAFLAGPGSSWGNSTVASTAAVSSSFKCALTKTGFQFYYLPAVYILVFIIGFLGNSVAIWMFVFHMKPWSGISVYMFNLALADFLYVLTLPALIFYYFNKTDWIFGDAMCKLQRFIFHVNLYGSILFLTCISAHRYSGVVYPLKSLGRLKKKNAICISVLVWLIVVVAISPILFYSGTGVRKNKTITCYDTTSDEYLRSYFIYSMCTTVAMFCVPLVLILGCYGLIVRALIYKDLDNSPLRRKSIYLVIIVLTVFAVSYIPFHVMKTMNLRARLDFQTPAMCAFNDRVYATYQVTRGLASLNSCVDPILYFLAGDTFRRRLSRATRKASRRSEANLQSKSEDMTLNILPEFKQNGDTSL
UniProt Q9H244: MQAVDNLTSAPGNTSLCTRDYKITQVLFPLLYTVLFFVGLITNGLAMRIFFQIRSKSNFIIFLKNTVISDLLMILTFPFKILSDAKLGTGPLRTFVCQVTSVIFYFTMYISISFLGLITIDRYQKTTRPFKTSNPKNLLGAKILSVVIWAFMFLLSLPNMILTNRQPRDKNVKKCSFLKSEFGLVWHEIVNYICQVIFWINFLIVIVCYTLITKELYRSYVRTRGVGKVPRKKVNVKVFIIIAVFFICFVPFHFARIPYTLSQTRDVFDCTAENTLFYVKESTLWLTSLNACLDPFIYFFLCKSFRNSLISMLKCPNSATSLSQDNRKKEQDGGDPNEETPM
UniProt P25095: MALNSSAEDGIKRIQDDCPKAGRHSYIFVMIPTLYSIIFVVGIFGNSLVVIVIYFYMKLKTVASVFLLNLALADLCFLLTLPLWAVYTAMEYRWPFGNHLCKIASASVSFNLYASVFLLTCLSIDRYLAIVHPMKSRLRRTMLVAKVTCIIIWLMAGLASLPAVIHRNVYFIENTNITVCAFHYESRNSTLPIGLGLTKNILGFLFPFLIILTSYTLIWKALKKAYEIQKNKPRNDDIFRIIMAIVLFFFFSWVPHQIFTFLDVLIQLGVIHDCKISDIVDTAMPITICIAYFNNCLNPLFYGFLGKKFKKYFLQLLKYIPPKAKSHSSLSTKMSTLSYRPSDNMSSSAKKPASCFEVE
UniProt P32121: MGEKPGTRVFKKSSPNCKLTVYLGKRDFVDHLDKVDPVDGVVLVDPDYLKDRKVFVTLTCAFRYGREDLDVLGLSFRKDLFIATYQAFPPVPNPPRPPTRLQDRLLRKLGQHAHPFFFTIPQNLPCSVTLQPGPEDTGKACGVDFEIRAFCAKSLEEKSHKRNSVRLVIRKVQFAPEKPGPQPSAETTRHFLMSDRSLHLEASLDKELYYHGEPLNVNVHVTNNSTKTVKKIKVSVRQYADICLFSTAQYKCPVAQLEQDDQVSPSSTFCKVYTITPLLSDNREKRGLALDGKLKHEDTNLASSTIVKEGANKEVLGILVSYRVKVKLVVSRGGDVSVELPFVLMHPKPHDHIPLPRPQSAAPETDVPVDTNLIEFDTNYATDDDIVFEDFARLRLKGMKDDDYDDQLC

β-arrestin 2 fused to the Renilla reniformis luciferase (RLuc) (from UniProt P32121 1-409)
binding [1]: binds | binding [2]: no binding | binding [3]: binds | binding [4]: no binding | binding [5]: binds | binding [6]: no binding | binding [7]: binds
